± gives the standard deviation of the averaged measurements. This is one part of the list.

This test has as its system PfAP2-EXP AP2 domain (GST-tagged). Put plainly: gcPBM binding intensity (ln(normalized median fluorescence intensity)); higher = stronger DNA binding. In outline:
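Alexa488 anti-GST antibody, scanned at 488 nm, detected GST-tagged P. falciparum DNA-binding domains that had been expressed in E. coli and incubated for 1 h on an Agilent 4 × 180k array. The array carried primer-extended double-stranded 36-bp intergenic genomic probes and negative controls. Binding intensity is the highest Masliner-normalised natural-log median intensity across replicate spots of either orientation of each probe.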
For the sequence “CACTAAACATATACACGTACATGCAACGGATTTTTT [XGTACX_site461]”, the “gcPBM binding intensity (ln)” value amounted to 8.74 ± 0.3. Then “AACGAACACTATTACACACATACATACATATGTATG [CACACA_site1859]”, with 8.74 ± 0.46; and “TTGTTTATTTGTAAAGCTAACAAGAAATGTGAATAT [CACACA_negctrl_site931]”, with 8.64 ± 0.42; and “TATACATAAAAATGATGTACATATAATATATATATA [XGTACX_site3863]”, with 9.37 ± 0.2. Then “TTATTATTATAAAATTGTACTTGGTATATTAACATA [XGTACX_site5829]”, with 8.15 ± 0.3; and “TATATAATTATTTATTGTACACTCAAATCGATAAGG [XGTACX_site3216]”, with 8.73 ± 0.31; and “ATATAAATATATTTTACACACAATGGAGAAAAAAAT [CACACA_site6450]”, with 8.78 ± 0.56.

For “GGATTAATATATTTACCACACACCCATTTCGATTTT [CACACA_site9200]”, the “gcPBM binding intensity (ln)” value was found to be 8.8 ± 0.49. Then “ATCTTGAAGATTATTTGTACACAAAAGTTAAAATAT [XGTACX_site242]”, with 8.36 ± 0.29; and “TATTTATAAATATAAACACACAACATTCTATGCATA [CACACA_site3243]”, with 8.45 ± 0.52; and “AATGTATTATGTCTTCGTACACATAAATAAATAAAT [XGTACX_site4004]”, with 8.51 ± 0.37.

Consider “TAAAGGAAATAAAAAACATGCAAATATGAAATATAT [TGCATGCA_site745]”, for which the “gcPBM binding intensity (ln)” value is 8.91 ± 0.35. “AATTATAAATTGGACACACACATAAAAAATATGTAC [CACACA_site221]”: the “gcPBM binding intensity (ln)” value was found to be 8.6 ± 0.39.

“TAAAAAAAAACATGTGCACACGTTTTATCTACATAA [CACACA_site2336]”: the “gcPBM binding intensity (ln)” value was 8.46 ± 0.23.

Take “ATACATAATAACTCCTGTACTTAAAAATGTATATAT [XGTACX_site1071]”: the “gcPBM binding intensity (ln)” value was 8.51 ± 0.31. As for “TTACATATTATACGAAGTACGTACAAATACTTATAT [XGTACX_site8598]”, the figure is 8.6 ± 0.26; as for “TTGCATTGTCCATGCGCACACACTACTAGAATAATA [CACACA_site3678]”, 8.56 ± 0.36. In the case of “TTTTTTTTTTTTTTTTTTAAACACCTCAAAAAAAAA [CACACA_negctrl_site807]”, the “gcPBM binding intensity (ln)” value is 8.04 ± 0.36. As for “ACCTTATTTAGTTATAGTACACAAAGTATTAAACAT [XGTACX_site8418]”, the figure is 9.57 ± 0.64; as for “TTTTTTTTTTTCTTCACACACAGTACTACTATTTAT [CACACA_site2409]”, 8.79 ± 0.45; as for “GCGAATAATATGGACATACACACATATACATACATA [CACACA_site2115]”, 8.88 ± 0.43. As for TATATATATTTTTGTGTGCACTATAATATGAAAATA, the figure is 9.22 ± 0.38; as for “TCATTTATTGAGGAATGTACACGTAAAATTTAATAA [XGTACX_site4086]”, 8.88 ± 0.33. As for “TTTTTTTTTTTTTTATGTACATATATATATTTTATT [XGTACX_site6915]”, the figure is 8.61 ± 0.6; as for “ATTTTTTTTTTTTTTTTCTTTTTTCTTCTTTTTTTT [CACACA_negctrl_site1223]”, 8.31 ± 0.58.

Values taken from the supplement of paper PMC11417369.
